# This is one part of the list. Sequences were assembled here from the parent chain. Inactive controls read about 0.05.
# B1: TEV protease; numbered along this chain (parent)
# chain: MGESLFKGPRDYNPISSSICHLTNESDGHTTSLYGIGFGPFIITNKHLFRRNNGTLVVQSLHGVFKVKDTTTLQQHLVDGRDMIIIRMPKDFPPFPQKLKFREPQREERICLVTTNFQTKSMSSMVSDTSCTFPSGDGIFWKHWIQTKDGQCGSPLVSTRDGFIVGIHSASNFTNTNNYFTSVPKNFMELLTNQEAQQWVSGWRLNADSVLWGGHKVFMVKPEEPFQPVKEATQL
# Variants of: B1
# Assay: raw area under fraction-flipped curve 0-4 h after induction (AUC4h, not background-subtracted), DNA-recorder readout of cleavage of the substrate (dimensionless); higher = more cleavage of the substrate by the protease variant
# Settings: temperature: 34 °C; time window: 0-4 h after rhamnose induction
# Method: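 In vivo DNA recorder in E. coli TOP10(DE3) ΔrhaA at 34 °C. Each TEVp single-site mutant (parent TEVp 0) is paired with a single-site variant of the 7-mer TEVs (canonical ENLYFQ|S). The substrate sits between flexible linkers in a Bxb1-sfGFP-TEVs-SsrA fusion, so cleavage stabilises Bxb1 and speeds flipping of a recombination array, read by NGS. The value is the raw area under the fraction-flipped curve over 0-4 h after rhamnose induction (AUC4h), with ≥20 reads per time point. It is not background-subtracted; inactive controls average about 0.047.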
# 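Note: Bxb1 expression induced with 0.2% (w/v) L-rhamnose at OD600 near 0.5, cultures sampled hourly, flipped fraction per protease–substrate barcode pair counted by paired-end Illumina sequencing.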
Variant,area with substrate ECLYFQS,area with substrate EDLYFQS,area with substrate ELLYFQS,area with substrate EMLYFQS,area with substrate EPLYFQS,area with substrate ERLYFQS,area with substrate ESLYFQS,area with substrate EWLYFQS,area with substrate EGLYFQS,area with substrate EHLYFQS,area with substrate EILYFQS,area with substrate EKLYFQS,area with substrate EQLYFQS,area with substrate EYLYFQS,area with substrate EVLYFQS,area with substrate EELYFQS,area with substrate ETLYFQS,area with substrate EFLYFQS
V126E,0.105,0.101,0.0578,0.0999,0.0548,0.0926,0.0777,0.0958,,,,,,,,,,
K98G,0.143,,0.0858,,,0.0907,0.109,0.0896,0.101,0.0871,0.122,0.104,0.116,,,,,
L211P,0.0732,0.0887,0.0699,0.0806,0.0819,0.0683,0.0793,,,,,0.0685,,0.0899,,,,
Y179K,0.066,,,,,0.0668,0.0569,,0.0583,,,0.0501,0.0596,,0.061,,,
E107G,0.089,0.155,0.0966,,0.0959,0.094,0.0826,0.0863,0.103,0.0929,,0.0913,0.136,,,0.0792,0.0937,
K142R,0.0667,,0.0768,0.0758,,,0.079,0.0761,0.0788,0.0872,,0.0767,,0.0836,,,,0.115
D128V,0.14,,,,0.0709,,0.123,,0.142,0.151,0.114,0.139,0.138,,,,0.124,
K68V,0.087,0.13,,0.114,0.121,0.0954,0.115,,0.0884,,0.0968,0.105,0.119,0.104,0.0896,0.11,,
F180E,0.0471,,0.0483,,0.0516,0.0297,0.0534,0.0618,0.0541,,,0.0431,0.0561,,,,0.0672,0.0613
T114K,0.118,,,,,0.107,0.0871,,,0.101,0.106,0.11,0.126,,0.0954,0.0913,,
I167Y,0.0732,0.0911,0.0514,,,0.0746,,0.0666,,,0.0477,0.0755,,0.0864,,,,0.0544
N175E,0.106,,0.04,,0.0923,0.0725,,,,,,0.0738,0.0778,,0.0747,,,
N175R,0.109,,,,,0.0722,0.13,,,0.142,,0.0931,,0.106,,,,0.0946
Q198E,0.124,0.14,,0.122,,0.0975,0.122,0.0988,0.119,0.155,0.104,0.123,0.126,,0.108,0.136,,0.118
L191G,0.0702,0.0569,0.0488,0.0564,0.0455,0.0648,0.0617,,0.0519,0.0558,0.0346,,0.0559,0.0548,0.059,0.0659,,
G39T,0.1,0.0286,0.0492,0.0411,0.0561,0.0332,0.0345,0.0948,0.0514,,0.047,0.04,0.0508,,0.0538,0.0336,,0.0382

Variant,area with substrate ECLYFQS,area with substrate EDLYFQS,area with substrate ELLYFQS,area with substrate EMLYFQS,area with substrate EPLYFQS,area with substrate ERLYFQS,area with substrate ESLYFQS,area with substrate EWLYFQS,area with substrate EGLYFQS,area with substrate EHLYFQS,area with substrate EILYFQS,area with substrate EKLYFQS,area with substrate EQLYFQS,area with substrate EYLYFQS,area with substrate EVLYFQS,area with substrate EELYFQS,area with substrate ETLYFQS,area with substrate EFLYFQS
G39H,0.0365,,0.0449,0.0457,0.0532,0.0536,0.0528,0.073,0.0515,,0.0406,0.0416,0.0377,0.0501,0.0411,0.0448,0.0516,
R81M,0.09,0.0671,,0.0935,0.11,0.0924,0.0936,,,0.102,0.0856,,0.0885,0.0962,0.0863,0.105,0.119,
S130D,0.0906,,,0.124,0.118,0.0728,,0.0845,0.0713,0.0769,,0.0988,0.128,0.0914,0.0877,,,
S135V,0.083,0.0963,0.075,0.0771,,,,0.0779,0.0743,0.0674,0.0887,0.0594,0.0743,,0.0776,0.0927,,0.106
N206S,0.138,0.175,0.092,,0.0528,0.129,0.0987,0.0824,0.0947,,0.101,,0.117,,,,0.112,
I139W,0.0897,0.124,,0.0927,,0.102,0.0997,0.085,0.0844,0.0988,0.0926,0.112,0.118,0.0937,0.0893,,0.106,0.0909
N13Y,0.0892,0.124,,0.157,0.107,0.0956,0.103,,0.0756,0.119,0.0739,0.101,0.121,0.118,0.101,0.112,,
D79A,0.0913,,,0.106,,0.0848,,,0.0832,,,0.0839,,0.0675,,,0.0953,
I164N,0.054,0.0559,0.0664,,0.0374,0.0593,0.0447,,,,0.0304,,0.048,,,,,0.0569
M122A,0.127,,,,,,0.0927,0.124,0.135,0.113,0.0851,0.12,,,0.106,0.076,,
I42Q,0.0477,,0.0309,0.0421,,0.037,0.0463,0.0394,,,,0.0485,0.0542,0.0424,,,0.0357,
D91F,0.092,0.0781,,0.0891,0.111,,0.0858,0.0912,0.094,0.0942,0.0909,0.1,0.104,0.0931,0.0721,0.078,0.0889,
Q59M,0.0986,0.139,0.141,,,,0.0888,,0.123,,0.0975,0.102,0.128,0.0882,0.0906,0.113,,0.0872
I145Q,0.0705,,0.0695,0.0761,0.0951,0.096,,,0.0714,,0.0673,0.072,,0.068,,,,0.0703
W141C,0.0678,,0.0545,0.0954,0.0543,0.0899,0.0653,0.0489,,,0.0792,0.0523,0.0762,,0.0543,0.0767,0.0628,0.0655
